Measured values as given in paper PMC11718236, “The Psu protein of phage satellite P4 inhibits transcription termination factor ρ by forced hyper-oligomerization” (Nature Communications, 2023).

Legend:
[1] = target: the molecule itself; experiment: cryo-EM structure; ρ^P167L-ATPγS-Psu complexes; 10 mM TRIS-HCl pH 8.0, 120 mM KOAc, 5 mM Mg(OAc)2, 5 µM ZnCl2; 1 mM ATPγS; single-particle analysis
[2] = target: T1, N-terminally His6-tagged Psu (wild type), co-produced with ρ in E. coli (phage satellite P4, UniProt P05460 1-190); experiment: pull-down; ρ variants and N-terminally His6-tagged Psu variants co-produced in E. coli BL21(DE3); lysates passed through Ni2+-NTA; 100 mM NaH2PO4 pH 7.0, 100 mM NaCl, 10-20 mM imidazole, elution 500 mM imidazole; Coomassie-stained gels quantified; pulled-down ρ = E/(FT+W+E) x 100; conditions: partners not purified
T1 construct: polarity suppression protein Psu of phage satellite P4; also called Psu^wt; His6-Psu; source: E. coli BL21(DE3), pET28b, co-produced with ρ variants, in lysate; not shown: His6, N-terminal, kept
T1 sequence: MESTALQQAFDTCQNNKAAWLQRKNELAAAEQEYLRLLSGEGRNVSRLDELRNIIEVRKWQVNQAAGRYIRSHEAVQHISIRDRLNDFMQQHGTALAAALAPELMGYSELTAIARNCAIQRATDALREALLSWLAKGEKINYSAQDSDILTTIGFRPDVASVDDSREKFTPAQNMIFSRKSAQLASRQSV

B1: transcription termination factor ρ P167L variant, non-tagged, purified (enzyme)
chain: not shown
notes: transcription termination factor ρ (Rho) of E. coli with P167L; non-tagged; source: E. coli BL21 RIL, purified (heparin column, Superdex 200 SEC)
[1]
  binding result: binds

B2: transcription termination factor ρ Y197A, co-produced with His6-Psu in E. coli (enzyme)
chain: not shown
notes: transcription termination factor ρ (Rho) of E. coli with Y197A; source: E. coli BL21(DE3), pET21b, co-produced with His6-Psu, in lysate
[2]
  ρ pulled down (%): ~25%
